Assays:
human pro-myostatin = human pro-myostatin (Homo sapiens, UniProt O14793); assay: Biacore 8k SPR binding affinity, human pro-myostatin
Description: (§1) The Biacore™ 8k SPR system was utilized to evaluate the binding affinity of myostatin antibodies to biotinylated human, murine, and cyno pro-myostatin. Biotin CAPture kit and sensor chips (Cytiva) were utilized in these experiments to immobilize the various antigens, followed by flowing a range of concentrations of each of the test antibodies.

cyno pro-myostatin = cyno pro-myostatin (Macaca fascicularis, UniProt Q95J86); assay: Biacore 8k SPR binding affinity, cyno pro-myostatin; set-up: species or system cynomolgus monkey
Description: as §1

murine pro-myostatin = murine pro-myostatin (Mus musculus, UniProt O08689); assay: Biacore 8k SPR binding affinity, murine pro-myostatin
Description: as §1

Ka (human pro-myostatin) [M⁻¹ s⁻¹]	Kd (1/s) (human pro-myostatin) [s⁻¹]	Ka (cyno pro-myostatin) [M⁻¹ s⁻¹]	Kd (1/s) (cyno pro-myostatin) [s⁻¹]	Ka (murine pro-myostatin) [M⁻¹ s⁻¹]	Kd (1/s) (murine pro-myostatin) [s⁻¹]	Molecule
4.23e+06	0.00735	3.49e+06	0.00908	3.31e+06	0.0208	Ab114: anti-pro/latent myostatin antibody; CDR sequences in Table 2d (antibody) heavy: QVQLVQSGAEVKKPGASVKVSCKVSGGTFRSYTIHWVRQAPGKGLEWMGGMNPSSGHTIYAQKFQGRVTMTEDTSTDTAYMELSSLKSEDTAVYYCARGLDYGEGYYYYGMDVWGQGTTVTVSSASTKGPSVFPLAPCSRSTSESTAALGCLVKDYFPEPVTVSWNSGALTSGVHTFPAVLQSSGLYSLSSVVTVPSSSLGTKTYTCNVDHKPSNTKVDKRV[human IgG4 Fc with S228P (EU numbers) left out] light: DIQMTQSPSSVSASVGDRVTITCRASQGISESLAWYQQKPGKAPKLLIYSASSLESGVPSRFSGSGSGTDFTLTISSLQPEDFANYYCQQGYSSPPYTFGGGTKVEIKRTVAAPSVFIFPPSDEQLKSGTASVVCLLNNFYPREAKVQWKVDNALQSGNSQESVTEQDSKDSTYSLSSTLTLSKADYEKHKVYACEVTHQGLSSPVTKSFNRGEC
406000	0.00123	443000	0.00139	450000	0.00137	Ab115: anti-pro/latent myostatin antibody; CDR sequences in Table 2d (antibody) heavy: QVQLVQSGAEVKKPGASVKVSCKVSGYAFTNYNIHWVRQAPGKGLEWMGGINPRTGGTIYAQKFQGRVTMTEDTSTDTAYMELSSLKSEDTAVYYCAKDIYTGVAVAGSGMDYWGQGTLVTVSSASTKGPSVFPLAPCSRSTSESTAALGCLVKDYFPEPVTVSWNSGALTSGVHTFPAVLQSSGLYSLSSVVTVPSSSLGTKTYTCNVDHKPSNTKVDKRV[human IgG4 Fc with S228P (EU numbers) left out] light: DIQMTQSPSSVSASVGDRVTITCRASQGISTHLAWYQQKPGKAPKLLIYGASNLESGVPSRFSGSGSGTDFTLTISSLQPEDFANYYCQQANSFPWTFGGGTKVEIKRTVAAPSVFIFPPSDEQLKSGTASVVCLLNNFYPREAKVQWKVDNALQSGNSQESVTEQDSKDSTYSLSSTLTLSKADYEKHKVYACEVTHQGLSSPVTKSFNRGEC
140000	0.000307	411000	0.000534	117000	0.000496	Ab129: anti-pro/latent myostatin antibody; CDR sequences in Table 2d (antibody) heavy: QVQLVQSGAEVKKPGASVKVSCKVSGFNYPRSAIHWVRQAPGKGLEWMGGINPSGEATIYAQKFQGRVTMTEDTSTDTAYMELSSLKSEDTAVYYCARDSSPQWLVTAGVYFYGMDVWGQGTTVTVSSASTKGPSVFPLAPCSRSTSESTAALGCLVKDYFPEPVTVSWNSGALTSGVHTFPAVLQSSGLYSLSSVVTVPSSSLGTKTYTCNVDHKPSNTKVDKRV[human IgG4 Fc with S228P (EU numbers) left out] light: DIQMTQSPSSVSASVGDRVTITCRASQSISNWLAWYQQKPGKAPKLLIYHASTLQSGVPSRFSGSGSGTDFTLTISSLQPEDFANYYCQQYSSTPWTFGGGTKVEIKRTVAAPSVFIFPPSDEQLKSGTASVVCLLNNFYPREAKVQWKVDNALQSGNSQESVTEQDSKDSTYSLSSTLTLSKADYEKHKVYACEVTHQGLSSPVTKSFNRGEC
5.27e+06	0.000577	–	–	–	–	Ab138: anti-pro/latent myostatin antibody; CDR sequences in Table 2d (antibody) heavy: EVQLVESGGGLVQPGGSLRLSCAASGFTFTSYGMSWVRQAPGKGLELVASITGSKGETYYPDSVKGRFTISRDNAKNSLYLQMNSLRAEDTAVYYCARDLLVRFLEWSHYYGMDVWGQGTTVTVSSASTKGPSVFPLAPCSRSTSESTAALGCLVKDYFPEPVTVSWNSGALTSGVHTFPAVLQSSGLYSLSSVVTVPSSSLGTKTYTCNVDHKPSNTKVDKRV[human IgG4 Fc with S228P (EU numbers) left out] light: DIVMTQSPLSLPVTPGEPASISCRSSQSLLHSSGHNFLHWYLQKPGQSPQLLIYETSNRAPGIPDRFSGSGSGTDFTLKISRVEAEDVGVYYCQQATQFPRPFGGGTKVEIKRTVAAPSVFIFPPSDEQLKSGTASVVCLLNNFYPREAKVQWKVDNALQSGNSQESVTEQDSKDSTYSLSSTLTLSKADYEKHKVYACEVTHQGLSSPVTKSFNRGEC
6.53e+06	0.000711	–	–	–	–	Ab140: anti-pro/latent myostatin antibody; CDR sequences in Table 2d (antibody) heavy: EVQLVESGGGLVQPGGSLRLSCAASGFTFSSYGMSWVRQAPGKGLELVASFTGSGGTYYPDSVKGRFTISRDNAKNSLYLQMNSLRAEDTAVYYCARDNLIRFLEWSHYYGMDVWGQGTTVTVSSASTKGPSVFPLAPCSRSTSESTAALGCLVKDYFPEPVTVSWNSGALTSGVHTFPAVLQSSGLYSLSSVVTVPSSSLGTKTYTCNVDHKPSNTKVDKRV[human IgG4 Fc with S228P (EU numbers) left out] light: DIVMTQSPLSLPVTPGEPASISCRSSQSLLHSSGHNFLHWYLQKPGQSPQLLIYEVSNRESGVPDRFSGSGSGTDFTLKISRVEAEDVGVYYCQQQTQYPPTFGGGTKVEIKRTVAAPSVFIFPPSDEQLKSGTASVVCLLNNFYPREAKVQWKVDNALQSGNSQESVTEQDSKDSTYSLSSTLTLSKADYEKHKVYACEVTHQGLSSPVTKSFNRGEC
1.9e+07	0.0023	–	–	–	–	Ab139: anti-pro/latent myostatin antibody; CDR sequences in Table 2d (antibody) heavy: EVQLVESGGGLVQPGGSLRLSCAASGFTFSSYGMSWVRQAPGKGLELVASFTGSGAAYYPDSVKGRFTISRDNAKNSLYLQMNSLRAEDTAVYYCARDLLIRFLEWSHYYGMDVWGQGTTVTVSSASTKGPSVFPLAPCSRSTSESTAALGCLVKDYFPEPVTVSWNSGALTSGVHTFPAVLQSSGLYSLSSVVTVPSSSLGTKTYTCNVDHKPSNTKVDKRV[human IgG4 Fc with S228P (EU numbers) left out] light: DIVMTQSPLSLPVTPGEPASISCRSSQSLLHSSGHNFLHWYLQKPGQSPQLLIYESSNRVSGVPDRFSGSGSGTDFTLKISRVEAEDVGVYYCQQQTQYPPTFGGGTKVEIKRTVAAPSVFIFPPSDEQLKSGTASVVCLLNNFYPREAKVQWKVDNALQSGNSQESVTEQDSKDSTYSLSSTLTLSKADYEKHKVYACEVTHQGLSSPVTKSFNRGEC

Source: US20260209325A1, “SELECTIVE AND POTENT INHIBITORY ANTIBODIES OF MYOSTATIN ACTIVATION” (SCHOLAR ROCK, INC., priority 2022, published 2026)
